Drawing on the RNAGym collection of RNA variant scans (doi:10.7554/elife.90254), this text covers self-cleavage for 167 variants.

The labels stand for the following.
B1: OR4K15 (parent)
chain: GUUAACGGUCAUAGGCCAUGGAAACUAGGAGCACCAUUUCGCUGCCAGUGAAGAAAUGAACAAAGAAAAUCUGGGCCAGGCAGGCAUCAAAAGAAAUAGUCUUGCGCUCAACCAGAAAGUCUGUAAUCAUUUUAAGGGUA

The source gives no read counts; variants with many changes may rest on few reads.

Variants of B1 are the subject of this data set. The data set can be described thus: self-cleavage, relative activity (ratio to wild type); higher = more cleavage; in vitro, sequencing; the parent is a self-cleaving ribozyme.
Consider A62G A110G U131C, for which the self-cleavage is 0.1.

Take U57C A110G A117G A126G: the self-cleavage came out at 0.

Consider A60U A68G A114G A125G, for which the self-cleavage turned out to be 0.34.

On to A60G A64G U72C U97G, for which the self-cleavage was 0.18.

On to A62G U70A A96G, for which the self-cleavage was 0.54.

U57C A63G U120A U124C: the self-cleavage is 0.44.

As for A60G A82U A92G U102C, the self-cleavage was determined as 0.18.

For the variant U57C A59U U102G U103C, the self-cleavage was found to be 0.02.

As to A56G U100C A129C, the self-cleavage worked out at 2.03.

For A56U C61U U132C, the self-cleavage was 1.46.

For U57C A68U A69G A118U, the self-cleavage is 0.34.

On to U57G A59G A90G U131A, for which the self-cleavage worked out at 0.74.

As to A62U A64G A114G, the self-cleavage came to 0.21.

For the variant A60G A63C A68G G84A, the self-cleavage is 1.36.

Regarding A59G A96G A118G, the self-cleavage came out at 0.63.

A59U A78U A96C: the self-cleavage was 0.2.

Turning to G58A U108C C113U, the self-cleavage worked out at 0.02.

With A60U A92G U127C, the self-cleavage is 1.26.

As for A60U A66G A90G, the self-cleavage is 1.05.

Turning to A62G A64G A89U A114G, the self-cleavage was 0.52.

As to G58A A69U A91G U103A, the self-cleavage is 0.5.

Turning to A59G A60G A62G, the self-cleavage was 1.17.

On to A60G A64G A86U A96U, for which the self-cleavage was 1.48.

For the variant A62G G74A A118U, the self-cleavage amounted to 0.05.

Take A62G A96G U97C: the self-cleavage turned out to be 0.47.

Regarding A56G U108A A118G, the self-cleavage is 0.02.

As to A59G U103C A134G, the self-cleavage turned out to be 0.61.

For the variant A60G A94G U97C, the self-cleavage is 0.55.

Turning to A60G A95G U103G A118G U139A, the self-cleavage worked out at 0.05.

On to A60G A62G A114G A116G, for which the self-cleavage is 0.05.

Consider A62G A82G A117G, for which the self-cleavage came to 0.3.

Take U57A A92G A116G: the self-cleavage turned out to be 0.24.

For the variant A59G U120C U139G, the self-cleavage came out at 0.94.

As for A60G A63G A140G, the self-cleavage amounted to 1.54.

As to A60G A92G U122A U132A, the self-cleavage stood at 1.17.

With A60G A94G G136C, the self-cleavage is 1.41.

Take A59G U72A A82G U132C: the self-cleavage was found to be 0.09.

In the case of A59G A60C U122C, the self-cleavage was 1.42.

Regarding A59G U120A U132C, the self-cleavage is 1.2.

As for A62G A94G U127C, the self-cleavage came out at 0.65.

With A60G A66G A125G, the self-cleavage amounted to 0.58.

With A59G C81G U102C A134G, the self-cleavage is 0.29.

For the variant A60U A67G A91U U100C, the self-cleavage was 1.28.

In the case of A59G A64G U87C, the self-cleavage turned out to be 0.95.

Regarding A60G U70A A82U, the self-cleavage amounted to 0.24.

In the case of A62C U102C U120A, the self-cleavage stood at 2.74.

As for G58A A62G A68G, the self-cleavage was determined as 0.35.

Turning to A62G U108C A134U, the self-cleavage is 0.

G58A U130C U133C: the self-cleavage was 0.53.

Turning to A59G G80A U87A U133C, the self-cleavage is 0.25.

As to A60G A116G U127C, the self-cleavage came out at 0.18.

For A62G A86C U100C, the self-cleavage stood at 2.28.

Turning to A59C A64G U100C, the self-cleavage worked out at 2.59.

For the variant U57C A69G A91G, the self-cleavage was 0.45.

Consider A60G A64G C121G U132C, for which the self-cleavage came out at 2.53.

Turning to U57A A91G U108A A135G, the self-cleavage came to 0.

For U57C A62G C112U A129G, the self-cleavage was 0.03.

Turning to A56G U97A A140U, the self-cleavage was 1.15.

Regarding U57C A94G U122C, the self-cleavage came out at 0.57.

For the variant A60G A82G U131C U132G, the self-cleavage was 0.07.

Consider A56U A117G U133C, for which the self-cleavage is 2.92.

As to A60G U108C A111G, the self-cleavage amounted to 0.01.

As for A62G U108C C109U, the self-cleavage was found to be 0.02.

For the variant A59G A82G U100A, the self-cleavage stood at 0.1.

For A56U U57G A66G U102C A114G A117G, the self-cleavage stood at 0.28.

As to A56U A92G U100C, the self-cleavage is 2.45.

As to A59U A90G A118G, the self-cleavage stood at 0.71.

In the case of A60G A62G U130C, the self-cleavage amounted to 0.43.

Take U57C A62G A66G: the self-cleavage amounted to 1.15.

As for A62G A67G A114G, the self-cleavage was 0.15.

A62G A86G G99A U103C A116G U122C U132A: the self-cleavage turned out to be 0.02.

Take U57A A86G A96G U108C A111G: the self-cleavage was determined as 0.02.

Consider U57A U100C C112G, for which the self-cleavage was 0.02.

In the case of A60G U72A A82G A117G, the self-cleavage was determined as 0.21.

U57G A90G A135G: the self-cleavage was 0.8.

Regarding U57C A68G C101A A140G, the self-cleavage is 0.05.

In the case of A59G A92G A111G, the self-cleavage is 0.04.

In the case of A62G A92G U124A, the self-cleavage was found to be 1.34.

On to A59G U87C A111G U139C, for which the self-cleavage is 0.03.

With A60G G74A U132C, the self-cleavage stood at 0.12.

For the variant A59G A60G U122A, the self-cleavage amounted to 1.52.

For the variant A62G A82G A129G, the self-cleavage worked out at 0.13.

As to U57C U97C U100C, the self-cleavage was found to be 1.64.

For the variant U57C U87C C101U U103G, the self-cleavage was 0.01.

Take A62G A67G A116G: the self-cleavage turned out to be 0.16.

Turning to U57C U72C A89G, the self-cleavage is 0.18.

In the case of A62G A66U A86U A110C, the self-cleavage was determined as 0.52.

On to U57G U87C A89C A91G A126G, for which the self-cleavage is 0.33.

For the variant A59U A91G A117G U130C, the self-cleavage turned out to be 0.55.

As to A56G U57C A59U A86G A90G A114G, the self-cleavage came to 0.08.

Turning to A56G U97C C107A A118G, the self-cleavage was 0.01.

Take U57C C88U A110U: the self-cleavage turned out to be 0.43.

With A60U A89U U120C, the self-cleavage came out at 0.73.

Consider A62G A96G A110G, for which the self-cleavage was 0.16.

For the variant A60G G74A U100C, the self-cleavage turned out to be 0.44.

For the variant A62C A82U A111G, the self-cleavage came out at 0.

Take A62G A63G A90U: the self-cleavage was found to be 1.25.

Regarding A60G A111G A117U, the self-cleavage stood at 0.

Take U57C C61A G84U A86G: the self-cleavage turned out to be 0.34.

On to A59G A92G A96U U124C, for which the self-cleavage came to 1.48.

For the variant A60G U100C U132G, the self-cleavage turned out to be 1.52.

On to A59G A63G U108C A114G, for which the self-cleavage stood at 0.

As to A59C A63G A91G, the self-cleavage worked out at 0.65.

Consider A62G A68G A126U, for which the self-cleavage was determined as 0.69.

Consider U57C A59C A114G U132C A134G, for which the self-cleavage came out at 0.

With A62G U100A A140G, the self-cleavage amounted to 0.54.

On to A60G A67C A117U, for which the self-cleavage turned out to be 0.53.

Regarding U57C A78G A118U, the self-cleavage is 0.06.

As to A59G A95G U122A A126G, the self-cleavage was 0.93.

As to G58A A69G A89C, the self-cleavage turned out to be 0.83.

With A62G G79A A92G A95G, the self-cleavage was found to be 0.08.

Regarding A60G A86U A95U, the self-cleavage amounted to 0.24.

Regarding U57A G106A U131C, the self-cleavage was found to be 0.02.

A60G U70G U72A A78G A91G A140G: the self-cleavage stood at 0.12.

On to A60G U103C A114G, for which the self-cleavage came out at 0.37.

In the case of A60G C76U A111U, the self-cleavage was determined as 0.03.

On to U57C A91G U139A, for which the self-cleavage worked out at 0.94.

A60G U72C A82U A89U: the self-cleavage was 0.13.

A62U A69G U108A: the self-cleavage turned out to be 0.04.

As for G58U A59G A60G, the self-cleavage was determined as 1.25.

Take A60G A69G A94G U108C A140C: the self-cleavage amounted to 0.

Regarding A60G A89G A90C A95G A111G U120A, the self-cleavage came out at 0.01.

For the variant G58A A118G U139C, the self-cleavage was 0.51.

A60G A89C U100C: the self-cleavage turned out to be 2.69.

As for A60G G79A A98G, the self-cleavage stood at 0.07.

On to A59G U87C A117G U130C U139A, for which the self-cleavage is 1.1.

Take A59U A68U U102C G115U U139C: the self-cleavage came out at 0.07.

Consider A60U C85G A96G U124C, for which the self-cleavage is 0.69.

For U57C A69G C107A U132A, the self-cleavage came out at 0.01.

For the variant A59G A67G A94U A114G, the self-cleavage came to 0.4.

Regarding A59G A69G U124C, the self-cleavage stood at 0.7.

For the variant A62G U108C A117G U131C, the self-cleavage is 0.

For A59U A114G G137A, the self-cleavage came to 0.26.

As for U57C A116G U122G, the self-cleavage amounted to 0.17.

Consider A59G U120C G123A, for which the self-cleavage turned out to be 0.78.

Consider A59G A60U A117G U131C, for which the self-cleavage amounted to 1.38.

Regarding U57A A95G U103C A126G, the self-cleavage was 0.61.

Turning to A62C A94G A111G, the self-cleavage is 0.03.

As for G58A A59C U120C, the self-cleavage was determined as 0.97.

Regarding U57C A68G A69G A135G, the self-cleavage is 0.36.

As to A60U A63G A64U A91G A95G, the self-cleavage amounted to 2.13.

Take A60G A66G U103C: the self-cleavage worked out at 1.04.

Regarding A59G U100C A134G, the self-cleavage was 2.3.

Regarding A62G A66G A110U A135U, the self-cleavage stood at 1.32.

For the variant A56G U102C U120C, the self-cleavage came to 1.36.

In the case of A56U A91G U127C, the self-cleavage was 0.62.

In the case of A62U A89G A111G U127C, the self-cleavage amounted to 0.01.

Consider U57C A92G U131C A140G, for which the self-cleavage amounted to 1.05.

Turning to U57A C71A A116G, the self-cleavage came to 0.18.

Turning to A62G U100C U102C, the self-cleavage is 2.15.

Regarding A62G A66G A69G, the self-cleavage turned out to be 0.57.

Consider A62U A78G U100C U122C, for which the self-cleavage was 0.28.

In the case of G58A A111G U132C, the self-cleavage came out at 0.02.

Turning to C61U A78U A95G A96C, the self-cleavage came to 0.14.

For the variant A62G A110U U127C, the self-cleavage was determined as 0.86.

For G58U A67G U120C, the self-cleavage was 0.53.

As to G58A A64G G73A, the self-cleavage was found to be 0.18.

With U57C U102A A125G, the self-cleavage amounted to 0.06.

In the case of A62G A69G U100C, the self-cleavage is 1.86.

A59G U97C A98U A118G: the self-cleavage was found to be 0.14.

In the case of A60G A86U G106A, the self-cleavage came to 0.

As for U57C A90G A118G, the self-cleavage came to 0.28.

Regarding A60G A129G U131C U133G, the self-cleavage is 0.48.

With A56G U57A A68U, the self-cleavage is 1.58.

In the case of A59G A68U U120C U131C, the self-cleavage came out at 0.97.

A59G U124A U130C: the self-cleavage amounted to 0.91.

With U57C A117G U122G U130C, the self-cleavage was determined as 1.3.
